At least one read-out could not be matched to a standard name with certainty.
Experiments:
[1] = system: human embryonic stem cell line H9; assay: Dose titration secondary assay: cell number, H9; format: cell-based
Method in brief: (§1)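 H1 or H9 hESCs on Matrigel treated 2 days with compound (seven 2-fold dilutions from 10 μM) in DMEM:F12, 0.5% FCS, 100 ng/ml Activin A without Wnt3a, then 2 days in 2% FCS plus Activin A. Fixed cells immunostained for Sox17 with Hoechst nuclear counterstain for imaging.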

[2] = system: Sox17 expression in human embryonic stem cell line H1; assay: Dose titration secondary assay: Sox17 intensity, H1; format: cell-based
Method in brief: as §1

CC(C)(O)CCn1nc(C2=C(c3cn(-c4cccnc4)c4ccccc34)C(=O)NC2=O)c2ccccc21 [Compound 223, 3-[1-(3-Hydroxy-3-methylbutyl)-1H-indazol-3-yl]-4-(1-pyridin-3-yl-1H-indol-3-yl)-1H-pyrrole-2,5-dione]
Cell number ([1]; 0.156 μM compound): 0.142
Cell number ([1]; 0.313 μM compound): 0.206
Cell number ([1]; 0.625 μM compound): 0.332
Cell number ([1]; 1.25 μM compound): 0.541
Cell number ([1]; 2.5 μM compound): 0.795
Cell number ([1]; 5 μM compound): 0.954
Cell number ([1]; 10 μM compound): 0.123
Sox17 Intensity ([2]; 0.156 μM compound): 0.789
Sox17 Intensity ([2]; 0.313 μM compound): 0.943
Sox17 Intensity ([2]; 0.625 μM compound): 0.931
Sox17 Intensity ([2]; 1.25 μM compound): 1.106
Sox17 Intensity ([2]; 2.5 μM compound): 1.169
Sox17 Intensity ([2]; 5 μM compound): 1.171
Sox17 Intensity ([2]; 10 μM compound): 1.183

CN(C)c1cccc(-n2cc(C3=C(c4nn(CCO)c5ccccc45)C(=O)NC3=O)c3ccccc32)c1 [Compound 145, 3-{1-[3-(Dimethylamino)phenyl]-1H-indol-3-yl}-4-[1-(2-hydroxyethyl)-1H-indazol-3-yl]-1H-pyrrole-2,5-dione]
Cell number ([1]; 0.156 μM compound): 0.063
Cell number ([1]; 0.313 μM compound): 0.086
Cell number ([1]; 0.625 μM compound): 0.230
Cell number ([1]; 1.25 μM compound): 0.108
Cell number ([1]; 2.5 μM compound): 0.151
Cell number ([1]; 5 μM compound): 0.127
Cell number ([1]; 10 μM compound): 0.000
Sox17 Intensity ([2]; 0.156 μM compound): 0.451
Sox17 Intensity ([2]; 0.313 μM compound): 0.555
Sox17 Intensity ([2]; 0.625 μM compound): 0.569
Sox17 Intensity ([2]; 1.25 μM compound): 1.055
Sox17 Intensity ([2]; 2.5 μM compound): 1.153
Sox17 Intensity ([2]; 5 μM compound): 0.235
Sox17 Intensity ([2]; 10 μM compound): 0.018
